This assay relates to HEK293T/16 cells. Put plainly: Secreted alkaline phosphatase (SEAP)-based surrogate killing assay of iCasp9 mutants. The class given is cell-based, human. Conditions: for Basal Activity (relative to wild type/unmodified Caspase-9): SEAP assay without AP1903. As for the experimental part:
Early passage HEK293T/16 cells (ATCC, Manassas, Va.) were maintained in IMDM, GlutaMAX™ (Life Technologies, Carlsbad, Calif.) supplemented with 10% FBS, 100 U/mL penicillin, and 100 […] until transfection in a humidified, 37° C., 5% CO2/95% air atmosphere. Cells in logarithmic-phase growth were transiently transfected with 800 ng to 2 μg of expression plasmid encoding iCasp9 mutants and 500 ng of an expression plasmid encoding SRα promoter driven SEAP per million cells in 15-mL conical tubes. […] GeneJammer® Transfection Reagent at a ratio of 3 μl per ug of plasmid DNA was used to transiently transfect HEK293T/16 cells in the absence of antibiotics. 100 μl or 2 mL of the transfection mixture was added to each well in 96-well or 6-well plate, respectively.
Briefly, after 65° C. heat denaturation for 45 minutes to reduce background caused by endogenous (and serum-derived) alkaline phosphatases that are sensitive to heat, 5 μl of supernatants was added to 95 μl of PBS and added to 100 μl of substrate buffer, containing 1 μl of 100 mM 4-methylumbelliferyl phosphate (4-MUP; Sigma, St. Louis, Mo.) re-suspended in 2 M diethanolamine. Hydrolysis of 4-MUP by SEAP produces a fluorescent […] with excitation/emission (355/460 nm), which can be easily measured. Assays were performed in black opaque 96-well plates to minimize fluorescence leakage between wells. […] of the mixture was seeded onto each well of a 96-well plate. […] For the assay, 4-methylumbelliferyl phosphate substrate was hydrolyzed by SEAP to 4-methylumbelliferon, a metabolite that can be excited with 364 nm and detected with an emission filter of 448 nm. Since SEAP is used as a marker for cell viability, reduced SEAP reading corresponds with increased iCaspase-9 activities.

B1: N405Q-T317S: modified iCasp9 double mutant (protein)
chain: VDGFGDVGALESLRGNADLAYILSMEPCGHCLIINNVNFCRESGLRTRTGSNIDCEKLRRRFSSLHFMVEVKGDLTAKKMVLALLELARQDHGALDCCVVVILSHGCQASHLQFPGAVYGTDGCPVSVEKIVNIFNGTSCPSLGGKPKLFFIQACGGEQKDHGFEVASTSPEDESPGSNPEPDASPFQEGLRTFDQLDAISSLPTPSDIFVSYSTFPGFVSWRDPKSGSWYVETLDDIFEQWAHSEDLQSLLLRVANAVSVKGIYKQMPGCFQFLRKKLFFKTSASRA
Regarding B1, the “Basal Activity (relative to wild type/unmodified Caspase-9)” value is “Decreased”.

B2: T317S: modified iCasp9, T317S (protein)
chain: VDGFGDVGALESLRGNADLAYILSMEPCGHCLIINNVNFCRESGLRTRTGSNIDCEKLRRRFSSLHFMVEVKGDLTAKKMVLALLELARQDHGALDCCVVVILSHGCQASHLQFPGAVYGTDGCPVSVEKIVNIFNGTSCPSLGGKPKLFFIQACGGEQKDHGFEVASTSPEDESPGSNPEPDASPFQEGLRTFDQLDAISSLPTPSDIFVSYSTFPGFVSWRDPKSGSWYVETLDDIFEQWAHSEDLQSLLLRVANAVSVKGIYKQMPGCFNFLRKKLFFKTSASRA
Consider B2, for which the “Basal Activity (relative to wild type/unmodified Caspase-9)” value (listed as T3175) was “Decreased”.

B3: N405Q-T317Sco: codon-optimized double mutant, class predicted (protein, UniProt P55211 1-416, looked up, variant N405Q T317S)
chain: MDEADRRLLRRCRLRLVEELQVDQLWDALLSRELFRPHMIEDIQRAGSGSRRDQARQLIIDLETRGSQALPLFISCLEDTGQDMLASFLRTNRQAAKLSKPTLENLTPVVLRPEIRKPEVLRPETPRPVDIGSGGFGDVGALESLRGNADLAYILSMEPCGHCLIINNVNFCRESGLRTRTGSNIDCEKLRRRFSSLHFMVEVKGDLTAKKMVLALLELAQQDHGALDCCVVVILSHGCQASHLQFPGAVYGTDGCPVSVEKIVNIFNGTSCPSLGGKPKLFFIQACGGEQKDHGFEVASTSPEDESPGSNPEPDASPFQEGLRTFDQLDAISSLPTPSDIFVSYSTFPGFVSWRDPKSGSWYVETLDDIFEQWAHSEDLQSLLLRVANAVSVKGIYKQMPGCFQFLRKKLFFKTS
modifications: FKBP12-F36V fusion (iCasp9), codon-optimized
notes: codon-optimized double mutant, class predicted
As for B3, the “Basal Activity (relative to wild type), predicted mutants (*)” value (marked '*, predicated') is recorded as “Decreased”.

These data come from patent publication US20230065562A1, “DUAL CONTROLS FOR THERAPEUTIC CELL ACTIVATION OR ELIMINATION” (Bellicum Pharmaceuticals, Inc., priority 2015, published 2023).
